Assay results published in PubChem BioAssay (NCI).
Several values for one entry are separate records, joined by “and”; a condition that tells them apart may be missing. Equal entries are not always repeated.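 Exposure lasted 48 hours, with cells grown in 96-well plates and compounds tested at five concentrations. GI50: concentration for 50% inhibition of growth. At the TGI there is no net growth.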

tested on: NCI-H322M lung; experiment: growth of human tumour cells (NCI), 48 h

Compared with `C=CCNC1=C2C[C@@H](C)C[C@@H](OC)[C@H](OC(=O)CN)[C@H](C)/C=C(\C)[C@@H](OC(N)=O)[C@H](OC)/C=C\C=C(/C)C(=O)NC(=CC1=O)C2=O`, `COC(=O)C(Cc1nc2ccc(Cl)cc2[nH]c1=O)/C(=N/NC(N)=O)C(=O)Nc1ccc(Cl)cc1` (stereo not drawn) is higher in TGI: 37 µM for the first, over 100 µM for the second.

`Cc1cc(C)c(S(=O)(=O)ONC(=O)OC(C)(C)C)c(C)c1` and `Cc1c(C)c(S(=O)(=O)N(CCCN)OCCCN)c(C)c2c1OC(C)(C)C2` cannot be ordered by TGI: over 100 µM for the first, over 100 µM for the second.

First: O=C(NCCCCCCCCNC(=O)c1cccc2ccccc12)c1cccc2ccccc12
Second: CC1=C[S+](c2ccccc2)c2cccc3cc4ccccc4c1c23 (stereo not drawn)
The TGI of the first is higher: over 100 µM for the first, 2.51 µM for the second.

`CC1(C)CC(=O)c2c(nc(SSc3nc4c(c(-c5ccccc5)c3C#N)C(=O)CC(C)(C)C4)c(C#N)c2-c2ccccc2)C1` and `O=C1C2c3[nH]c4ccccc4c3[C@@H]3CCCCC3C2C(=O)N1c1ccccc1` (stereo partly drawn) cannot be ordered by TGI: over 10 µM for the first, over 100 µM for the second.

`CC#CCCN(CC#N)Cc1ccccc1` and `c1ccc(C[n+]2cccc(-c3cc4ccccc4[nH]3)c2)cc1` cannot be ordered by TGI: over 100 µM for the first, over 100 µM for the second.

`O=c1cc(-c2ccccc2)oc2cc(OCCSCCCCCCCCCCSCCOc3ccc4c(=O)cc(-c5ccccc5)oc4c3)ccc12` and `O=c1cc(-c2ccc(Cl)cc2)oc2cc(OCCCOc3ccc4c(=O)cc(-c5ccc(Cl)cc5)oc4c3)ccc12` cannot be ordered by TGI: over 100 µM for the first, over 100 µM for the second.

Going from `O=C1C(Cl)=C(Nc2cccc(O)c2)C(=O)N1c1ccccc1Cl` to `O=C(OCc1ccc2c(Cl)cc(Cl)c(O)c2n1)c1cc2ccccc2[nH]1`, the TGI falls from over 100 µM to 3.13 µM.

`O=C(O)C12CCCC(CCC1)C2` and `NCCN1CC2CCC(CC2)C1` cannot be ordered by TGI: over 100 µM for the first, over 10 µM for the second.

Going from `COC(OC)[C@@H](C)[C@H](O)[C@](C)(O)C1OC(C)(C)OC(C(C)C=C(C)C)C1C` (stereo partly drawn) to `CCOC(=O)/C=C(/C(=O)OCC)n1ccc(=O)n(/C(=C/C(=O)OCC)C(=O)OCC)c1=O`, the TGI falls from over 100 µM to 40.1 µM.

`COc1ccc(C2SC(C)C(=O)N2c2nc(-c3nc(-c4ccc(Cl)cc4)cs3)cs2)cc1` (stereo not drawn) and `COc1ccc(-c2csc(-c3cc(Cl)cc(Cl)c3Cl)n2)cc1` cannot be ordered by TGI: over 100 µM for the first, over 100 µM for the second.

`Cc1cc(OCC(=O)N/N=C/C(Br)=C/c2ccccc2)nc(SCC(=O)N/N=C/C(Br)=C/c2ccccc2)n1` and `COC(=O)[C@@H]1C[C@H]([Se]c2ccccc2)CN1C(=O)OCc1ccccc1` cannot be ordered by TGI: over 100 µM for the first, over 100 µM for the second.

`COc1ccc(-c2c(-c3cc(OC)c4c(c3)OCO4)noc2N)cc1` and `COc1ccc(Cc2nccc3cc(OC)c(OC)cc23)cc1OC` cannot be ordered by TGI: over 100 µM for the first, over 100 µM for the second.

Going from `CN(CCCl)c1ccc(/C=C/C2=[N+](C)c3ccccc3C2(C)C)cc1` to `CN(C)c1ccc(/C=N\N2C(=O)c3ccccc3C2=O)cc1`, the TGI rises from 15.1 µM to over 100 µM.

`O=C(c1cccc(C(=O)c2ccc3c4c(cccc24)C(=O)N(c2ccccc2)C3=O)c1)c1ccc2c3c(cccc13)C(=O)N(c1ccccc1)C2=O` and `COc1ccc(C(=O)c2cc3c(N)c(C(=O)Nc4cccc(Cl)c4C)sc3nc2C)cc1` cannot be ordered by TGI: over 100 µM for the first, over 25 µM for the second.

`CCOC(=O)c1cnc(-n2[nH]c3c(c2=O)CCCC3)[nH]c1=O` and `CCOC(=O)C1=C(C)N(NC(N)=O)C2(O)CCCC(=O)C12C` (stereo not drawn) cannot be ordered by TGI: over 100 µM for the first, over 100 µM for the second.

First: C[C@]12[C@@H]3CC[C@H]1[C@@H](OC(=O)Nc1cc([N+](=O)[O-])cc([N+](=O)[O-])c1)C(=O)N2CC3
Second: C=C1C(=O)O[C@H]2[C@H]1CC/C(COC(=O)c1ccc(C#N)cc1)=C\CC[C@@]1(C)O[C@@H]21
The TGI of the first is higher: over 100 µM for the first, 16.1 µM for the second.

First: Cc1ccc(/C=C/C(=N/NC(=O)N/N=C(/C=C/c2ccc(C)cc2)C(C)(C)CN2CCCCC2)C(C)(C)CN2CCCCC2)cc1
Second: CC(=O)NNc1nc(C)c(C(/C=C/c2ccc(Cl)cc2)=N/NC(=O)C[N+](C)(C)C)s1
The TGI of the first is lower: 4.23 µM for the first, over 100 µM for the second.

First: CC1OC(OC2C(O)COC(OC3C(C)OC(OC4C(OC(=O)[C@]56CCC(C)(C)C[C@@H]5C5=CCC7[C@@]8(C)C[C@H](O)[C@H](OC9OC(CO)C(O)C(OC%10OC(CO)C(O)C(O)C%10O)C9O)[C@@](C)(CO)[C@@H]8CC[C@@]7(C)[C@]5(C)CC6)OCC(O)C4O)C(O)C3O)C2O)C(O)C(O)C1O (stereo partly drawn)
Second: O=C(O)C1(Cc2cccc(Nc3nccs3)n2)CCC(Oc2cccc(Cl)c2F)CC1 (stereo not drawn)
The TGI of the first is 2.1-fold lower: 30.3 µM for the first, 64.2 µM for the second.

First: CCOC(=O)c1cc2c(n1Cc1ccccc1)-c1oncc1CC2
Second: O=C(/C=C/c1ccc(O)c(O)c1O)OCCc1ccccc1
The TGI of the first is 1.9-fold higher: 98.3 µM for the first, 52.5 µM for the second.

Compared with `CNCCCNc1nc2ccccc2c2c(=O)c3cc(Cl)ccc3sc12`, `O=C(CCN1CCOCC1)Nc1ccc2sc3ccccc3c(=O)c2n1` is higher in TGI: 2.9 µM for the first, over 100 µM for the second.

`COC(=O)[C@@H]1C[C@@H]2c3ccccc3N(S(=O)(=O)c3ccccc3)[C@@H]2N1C(=O)OC` and `COc1ccc(C(=O)COc2cccc(/C=C3\CSc4ccc(C)cc4C3=O)c2)cc1` cannot be ordered by TGI: over 100 µM for the first, over 100 µM for the second.

Compared with `Cc1cn(C2CC(N)C(C(=O)O)O2)c(=O)[nH]c1=O` (stereo not drawn), `COC1=Nc2ccccc2S(=O)(=O)C=C1` is lower in TGI: over 100 µM for the first, 37.7 µM for the second.

Going from `O=C(c1ccccc1)c1nc2ccc(C(F)(F)F)cc2[n+]([O-])c1C(F)(F)F` to `O=C(Nc1ccccc1F)c1cc2ccc(O)cc2oc1=Nc1cccc(C(F)(F)F)c1`, the TGI falls from over 100 µM to 10.9 µM.

With `CCC(C(=O)[O-])C(=O)[O-].CCC(C(=O)[O-])C(=O)[O-].N.N.NCCCCCCN.[Pt+4].[Pt+4]` the TGI was 29.7 µM.

Compared with `O=C1C(Cl)=C(Nc2cccc(O)c2)C(=O)N1c1ccccc1Cl`, `O=C(OCc1ccc2c(Cl)cc(Cl)c(O)c2n1)c1cc2ccccc2[nH]1` is 16-fold lower in GI50: 27.3 µM for the first, 1.66 µM for the second.

First: COc1ccc(-c2c(-c3cc(OC)c4c(c3)OCO4)noc2N)cc1
Second: COc1ccc(-c2csc(-c3cc(Cl)cc(Cl)c3Cl)n2)cc1
The GI50 of the first is lower: 0.0721 µM for the first, over 100 µM for the second.

Going from `CN(CCCl)c1ccc(/C=C/C2=[N+](C)c3ccccc3C2(C)C)cc1` to `CC1=C[S+](c2ccccc2)c2cccc3cc4ccccc4c1c23` (stereo not drawn), the GI50 falls from 1.11 µM to 0.614 µM (1.8-fold).

Going from `COc1ccc(C(=O)c2cc3c(N)c(C(=O)Nc4cccc(Cl)c4C)sc3nc2C)cc1` to `COc1ccc(C(=O)COc2cccc(/C=C3\CSc4ccc(C)cc4C3=O)c2)cc1`, the GI50 rises from 0.142 µM to over 100 µM.

Going from `CCOC(=O)c1cc2c(n1Cc1ccccc1)-c1oncc1CC2` to `CNCCCNc1nc2ccccc2c2c(=O)c3cc(Cl)ccc3sc12`, the GI50 falls from 11.7 µM to 1.52 µM (7.7-fold).

Going from `C=C1C(=O)O[C@H]2[C@H]1CC/C(COC(=O)c1ccc(C#N)cc1)=C\CC[C@@]1(C)O[C@@H]21` to `O=C(O)C1(Cc2cccc(Nc3nccs3)n2)CCC(Oc2cccc(Cl)c2F)CC1` (stereo not drawn), the GI50 rises from 4.34 µM to 23.9 µM (5.5-fold).

Compared with `O=C(c1ccccc1)c1nc2ccc(C(F)(F)F)cc2[n+]([O-])c1C(F)(F)F`, `CCC(C(=O)[O-])C(=O)[O-].CCC(C(=O)[O-])C(=O)[O-].N.N.NCCCCCCN.[Pt+4].[Pt+4]` is lower in GI50: over 100 µM for the first, 20.1 µM for the second.

With `O=C(O)c1ccc2c(c1)nc(Nc1cccc(Cl)c1)c1ccncc12` the GI50 was 1.31 µM and 2.1 µM.

With `O=C(O)c1ccc2c(c1)nc(Nc1cccc(Cl)c1)c1ccncc12` the TGI was 15.9 µM and > 10 µM.
